Assay results taken from article PMC4336329 (PLoS ONE, 2015).
About 14,000 (4.5%) of roughly 310,000 compounds showed an effect of 50% or more. The effect is printed as a negative number. The list shows a part of the results.

target: human ether-à-go-go-related gene (hERG) potassium channel (human, UniProt Q12809); assay: primary screen, population patch clamp on CHO cells stably expressing hERG
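Also: peak tail current of the secondary pulse compared with the same well before compound.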

human ether-à-go-go-related gene (hERG) potassium channel, sequence (Q12809 whole entry, looked up): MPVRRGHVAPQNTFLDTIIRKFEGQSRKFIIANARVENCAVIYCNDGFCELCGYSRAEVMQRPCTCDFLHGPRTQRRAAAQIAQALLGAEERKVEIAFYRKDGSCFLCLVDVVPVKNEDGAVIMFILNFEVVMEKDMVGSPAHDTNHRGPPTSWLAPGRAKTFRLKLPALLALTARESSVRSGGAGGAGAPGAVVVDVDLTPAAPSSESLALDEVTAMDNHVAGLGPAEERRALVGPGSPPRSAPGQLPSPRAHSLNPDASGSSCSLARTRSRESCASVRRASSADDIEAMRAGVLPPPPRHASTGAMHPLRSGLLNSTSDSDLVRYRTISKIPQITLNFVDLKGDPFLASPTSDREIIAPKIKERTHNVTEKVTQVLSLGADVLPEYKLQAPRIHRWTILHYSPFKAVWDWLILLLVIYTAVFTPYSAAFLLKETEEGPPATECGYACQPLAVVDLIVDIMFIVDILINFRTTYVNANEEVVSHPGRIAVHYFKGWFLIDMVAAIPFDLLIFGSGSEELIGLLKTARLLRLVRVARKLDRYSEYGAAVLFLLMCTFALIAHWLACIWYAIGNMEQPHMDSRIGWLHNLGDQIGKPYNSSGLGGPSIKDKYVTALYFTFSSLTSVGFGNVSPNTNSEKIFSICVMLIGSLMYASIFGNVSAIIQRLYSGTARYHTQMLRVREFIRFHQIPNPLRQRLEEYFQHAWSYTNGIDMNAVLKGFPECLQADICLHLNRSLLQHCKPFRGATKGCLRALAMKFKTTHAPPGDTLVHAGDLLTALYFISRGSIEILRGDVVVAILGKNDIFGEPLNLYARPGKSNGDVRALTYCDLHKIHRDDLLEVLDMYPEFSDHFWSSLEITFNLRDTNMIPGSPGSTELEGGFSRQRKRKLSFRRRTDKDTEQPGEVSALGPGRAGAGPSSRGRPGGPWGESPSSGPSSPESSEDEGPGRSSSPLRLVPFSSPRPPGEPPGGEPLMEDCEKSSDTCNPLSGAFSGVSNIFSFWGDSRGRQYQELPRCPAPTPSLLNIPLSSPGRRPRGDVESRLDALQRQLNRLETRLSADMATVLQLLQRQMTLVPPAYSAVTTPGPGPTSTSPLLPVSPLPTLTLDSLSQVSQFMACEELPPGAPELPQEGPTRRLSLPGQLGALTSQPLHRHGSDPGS

Going from `O=C1N(c2ccc(Cl)c(Cl)c2)CN(Cc2ccccc2)CN1n1cnnc1` to `Cc1cccc(NC(=S)N2CCN(Cc3ccccc3)CC2)c1C`, the “hERG current change (%, negative = inhibition) at 10uM” value rises from -25.9% to -13.2%.

First: O=C(NCC1CCN(C(=O)c2c(F)c(F)c(F)c(F)c2F)CC1)c1c(F)c(F)c(F)c(F)c1F
Second: Cc1cc(C)c(NC(=O)c2cn3c4c(c(N5CCN(C)CC5)c(F)cc4c2=O)OCC3C)c(C)c1 (stereo not shown)
The “hERG current change (%, negative = inhibition) at 10uM” value of the first is higher: -30% for the first, -51.7% for the second.

Compared with `CCN1CCCC1CNC(=O)c1cn(CC)c2ccc(S(=O)(=O)N3CCCCCC3)cc2c1=O` (stereo not shown), `CCOc1ccc(CNC(=O)C2CCN(S(=O)(=O)c3ccc4c(c3)CCCC(=O)N4)CC2)cc1` is higher in “hERG current change (%, negative = inhibition) at 10uM” value: -66.5% for the first, 4.94% for the second.

Going from `CCNC(=O)NC(=O)C(C)OC(=O)c1oc2ccccc2c1CSC1CCCCC1` (stereo not shown) to `COc1ccc(OCC(=O)OCC(=O)NCC2CCCCC2)cc1`, the “hERG current change (%, negative = inhibition) at 10uM” value rises from 1.74% to 6.21%.

Going from `O=c1[nH]c2ccccc2n2c(-c3ccccc3)nnc12` to `O=C1c2ccccc2C(=O)N1CCCOc1ccccc1`, the “hERG current change (%, negative = inhibition) at 10uM” value rises from 5.35% to 8.33%.

First: Cc1cccc(NCc2ccccc2OCc2ccccc2F)c1
Second: COC(=O)c1ccccc1SC(CC(=O)c1ccccc1)c1ccc(F)cc1 (stereo not shown)
The “hERG current change (%, negative = inhibition) at 10uM” value of the first is higher: 12.6% for the first, 11.1% for the second.

Going from `COc1cc(Br)ccc1C1CC(=O)C(C)C(c2ccc(Br)cc2OC)N1` (stereo not shown) to `COc1ccc2[nH]c(=O)c(CNc3ccc(C)c(C)c3)cc2c1`, the “hERG current change (%, negative = inhibition) at 10uM” value falls from 10.5% to 3.24%.

Going from `COCCN(C)C(=O)CCc1nnc(Cc2ccc(-c3ccccc3)cc2)o1` to `COc1ccc(NC(=O)CN(C)C(=O)Cn2c(=O)oc3ccccc32)cc1`, the “hERG current change (%, negative = inhibition) at 10uM” value falls from -0.986% to -8.51%.

Going from `CCCc1nc(NCC2CCCO2)c2nnn(Cc3ccccc3)c2n1` (stereo not shown) to `CCCC[C@@H]1CNCCN1CCc1cccc2ccccc12`, the “hERG current change (%, negative = inhibition) at 10uM” value falls from 5.29% to -22.8%.

First: COc1cc(OC)cc(-c2cc3nc(C)c(CCC(=O)O)c(C)n3n2)c1
Second: CCOc1cc(C(=O)N(C)Cc2cc3cc(OC)ccc3[nH]c2=O)cc(OCC)c1OCC
The “hERG current change (%, negative = inhibition) at 10uM” value of the first is higher: 26% for the first, -7.8% for the second.

Compared with `CN1C(=O)c2ccc(NC(=O)CSc3ccccc3)cc2C1=O`, `COC(=O)c1cccc(NC(=O)CSc2nnc(COc3ccccc3)n2C)c1` is lower in “hERG current change (%, negative = inhibition) at 10uM” value: 5.57% for the first, -7.84% for the second.

First: O=C(COc1ccccc1)N1N=C(c2cccnc2)CC1(O)C(F)(F)F (stereo not shown)
Second: O=C(NCCCn1ccnc1)/C(=C\c1cccnc1)NC(=O)c1ccccc1F
The “hERG current change (%, negative = inhibition) at 10uM” value of the first is higher: -10.8% for the first, -17.7% for the second.

Compared with `COc1ccc(C(CC(=O)Nc2ccccn2)N2Cc3ccccc3C2=O)cc1` (stereo not shown), `COc1ccc(C2C3=C(N=C4SCC(=O)N42)c2ccccc2CC3)cc1` (stereo not shown) is higher in “hERG current change (%, negative = inhibition) at 10uM” value: -30.2% for the first, -8.9% for the second.

Compared with `Cc1cccc(NS(=O)(=O)c2nnc(NC(=O)c3ccc(Cl)cc3)s2)c1`, `O=C(Nc1cccc(S(=O)(=O)C(F)F)c1)c1ccc(S(=O)(=O)N2CCCC2)cc1` is lower in “hERG current change (%, negative = inhibition) at 10uM” value: 3.53% for the first, -2.91% for the second.

First: CCOC(=O)c1csc(NC(C)=O)n1
Second: COC(=O)c1sccc1NC(=O)Nc1cccc(C)c1C
The “hERG current change (%, negative = inhibition) at 10uM” value of the first is higher: 16.1% for the first, 14.6% for the second.

First: CCOC(=O)C1CCN(C(=O)COc2ccc(S(=O)(=O)N3CCOCC3)cc2C)CC1
Second: Cc1cc(C)c(S(=O)(=O)N2CCCCC2CCNC(=O)C(=O)NCCN2CCOCC2)c(C)c1 (stereo not shown)
The “hERG current change (%, negative = inhibition) at 10uM” value of the first is higher: -1.46% for the first, -23.9% for the second.

Compared with `O=C(NCC1CCCN1S(=O)(=O)c1cccs1)c1ccc(F)cc1` (stereo not shown), `CCCNC(=O)c1ccc(S(N)(=O)=O)cc1` is higher in “hERG current change (%, negative = inhibition) at 10uM” value: -13.9% for the first, 10.1% for the second.

Going from `CCN(CC(=O)N1CCOCC1)S(=O)(=O)c1ccc(Cl)cc1` to `CC(C)OCCCNC(=O)C1CCC(CNS(=O)(=O)c2ccc(Cl)cc2)CC1` (stereo not shown), the “hERG current change (%, negative = inhibition) at 10uM” value rises from 1.62% to 12.2%.

First: O=[N+]([O-])c1ccc(NCCc2ccccc2)c(Br)c1
Second: NCc1c(O)ccc2ccccc12
The “hERG current change (%, negative = inhibition) at 10uM” value of the first is higher: 17.6% for the first, 13.4% for the second.

First: CSc1cccc(NC(=O)CCNS(=O)(=O)c2ccc3[nH]c(=O)oc3c2)c1
Second: COc1ccccc1NS(=O)(=O)c1ccc2[nH]c(=O)[nH]c2c1
The “hERG current change (%, negative = inhibition) at 10uM” value of the first is higher: 12.5% for the first, 1.71% for the second.

Going from `CCC(C)n1c(O)c(C=NCCc2ccccc2)c(=O)[nH]c1=S` (stereo not shown) to `CCOc1ccc(N=Cc2c(O)n(-c3cccc(C)n3)c(=O)c3ccccc23)cc1`, the “hERG current change (%, negative = inhibition) at 10uM” value falls from 14.5% to -34.1%.

Compared with `CCOC(=O)C1CCCN(C(=O)c2ccc(C)c(NC(=O)C3=C(C)OCCS3)c2)C1` (stereo not shown), `Cc1cc(C(=O)NC2CCCN(Cc3ccccc3F)C2)no1` (stereo not shown) is higher in “hERG current change (%, negative = inhibition) at 10uM” value: 14.5% for the first, 25.7% for the second.

First: COc1cccc(NC(=S)NC(=O)/C=C/c2ccc(F)cc2)c1
Second: COC(=O)NC(NC(=S)Nc1cccc(C)c1)C(Cl)(Cl)Cl (stereo not shown)
The “hERG current change (%, negative = inhibition) at 10uM” value of the first is higher: 19% for the first, 8.32% for the second.

First: CCO[C@@H]1c2c(ccc3ccc(=O)oc23)OC(C)(C)[C@@H]1O
Second: CCN(CC)S(=O)(=O)c1ccc(N/N=C/c2ccc(OC)c(OC)c2OC)nc1
The “hERG current change (%, negative = inhibition) at 10uM” value of the first is higher: 22.3% for the first, 14.1% for the second.

Compared with `CCCCNC(=O)C1CCN(Cc2ccccn2)CC1`, `O=C(C1CCN(S(=O)(=O)c2cccc3cccnc23)CC1)N1CCCC1` is lower in “hERG current change (%, negative = inhibition) at 10uM” value: 12% for the first, 7.5% for the second.

Going from `O=C(CSc1nccc(=O)[nH]1)NC1CCCc2ccccc21` (stereo not shown) to `CC(C)c1ccc(NC(=O)N2CCc3ccccc3C2)cc1`, the “hERG current change (%, negative = inhibition) at 10uM” value falls from 4.2% to -15.1%.

Compared with `Cn1c(Oc2ccc(F)cc2F)c(C=O)c2ccccc21`, `COc1cc(C=O)ccc1OCCSc1ccc(Cl)cc1` is higher in “hERG current change (%, negative = inhibition) at 10uM” value: -17.7% for the first, 2.93% for the second.

Compared with `Cc1nccn1S(=O)(=O)c1cc([N+](=O)[O-])ccc1Cl`, `Cc1cc(S(=O)(=O)NCC2CC2)c(Cl)cc1Cl` is lower in “hERG current change (%, negative = inhibition) at 10uM” value: 0.394% for the first, -1.48% for the second.

Going from `COc1ccc(-n2c(-c3ccc(Br)cc3)c[n+]3c2CCCCC3)cc1.[Br-]` to `Cc1ccc(-c2c[n+](Cc3ccc(Cl)cc3)c3n2CCC3)cc1.[Cl-]`, the “hERG current change (%, negative = inhibition) at 10uM” value rises from -80.3% to -41.6%.

First: O=C(CNC(=O)c1cccs1)N=Nc1c(O)[nH]c2ccc(Br)cc12
Second: COC(=O)c1ccc(CSc2nnc(Nc3ccccc3OC)s2)o1
The “hERG current change (%, negative = inhibition) at 10uM” value of the first is higher: 14.8% for the first, -49.4% for the second.

Compared with `Cc1oc(-c2ccccc2Cl)nc1CSc1nc2c(c(=O)[nH]1)CCCC2`, `CCOC(=O)N1CCC(NC(=O)CS(=O)Cc2nc(-c3ccc(Cl)cc3)oc2C)CC1` (stereo not shown) is lower in “hERG current change (%, negative = inhibition) at 10uM” value: 8.98% for the first, -47.4% for the second.

First: CCOc1ccc(Cn2nnc(-c3ccc(S(C)(=O)=O)cc3)n2)cc1OCC
Second: COc1ccc(S(=O)(=O)N2CN(CCc3ccc(OC)c(OC)c3)c3nc4ccccc4nc32)cc1
The “hERG current change (%, negative = inhibition) at 10uM” value of the first is higher: 17.8% for the first, -16% for the second.

First: CCOC(=O)C1(Cc2cccc(OC)c2)CCN(Cc2ccc(C)s2)CC1
Second: CCOc1cccc(N(C(=O)c2ccco2)C(C(=O)NC2CCCC2)c2cccnc2)c1 (stereo not shown)
The “hERG current change (%, negative = inhibition) at 10uM” value of the first is lower: -67.1% for the first, 0.854% for the second.

Compared with `CN(CCCC1CCCC1)C(=O)c1cc(COc2ccc(F)c(F)c2)on1`, `CCN(CC)C1CCN(C(=O)c2cc(COc3ccc(-n4cncn4)cc3)on2)C1` (stereo not shown) is lower in “hERG current change (%, negative = inhibition) at 10uM” value: 11.5% for the first, -16.9% for the second.

First: Fc1ccc(N2CCN(c3nnnn3-c3ccccc3)CC2)cc1
Second: O=C(CSc1ccc(-c2ccco2)nn1)c1ccc(F)cc1
The “hERG current change (%, negative = inhibition) at 10uM” value of the first is higher: -17% for the first, -25.8% for the second.

Compared with `CC(C)(C)NC(=O)C(=O)NNC(=O)COc1ccccc1`, `CC(C)NCC(O)COc1ccc(COCCOC(C)C)cc1.O=C(O)/C=C/C(=O)O` (stereo not shown) is higher in “hERG current change (%, negative = inhibition) at 10uM” value: -14.4% for the first, -3.41% for the second.

Compared with `Cc1ccc(C2CC(=O)Nc3cc4c(cc32)OCO4)o1` (stereo not shown), `CCn1c(NCc2ccc3c(c2)OCO3)nc2ccccc21` is lower in “hERG current change (%, negative = inhibition) at 10uM” value: -6.64% for the first, -38.5% for the second.

First: Cn1c(=O)c2c(nc(Cl)n2CC(=O)N2CCCCC2)n(C)c1=O
Second: O=C(CSc1nnc(-c2ccncc2)o1)N1CCCC1
The “hERG current change (%, negative = inhibition) at 10uM” value of the first is higher: 42% for the first, -19.1% for the second.

First: O=C(CCCCCNC(=O)N1CCn2c1nc1ccccc12)NCc1ccccc1Cl
Second: O=C(CSCc1c(F)cccc1Cl)NCc1ccncc1
The “hERG current change (%, negative = inhibition) at 10uM” value of the first is lower: -16.6% for the first, 0.859% for the second.

Compared with `COc1ccc(N2C(=O)C3[C@@H](C2=O)C2(Cl)C(Cl)=C(Cl)C3(Cl)C2(OC)OC)cc1` (stereo partly shown), `COC(=O)[C@]1(C)N[C@H](c2ccc(SC3CCCCC3)cc2)[C@@H]2C(=O)N(C)C(=O)[C@@H]21.O=C(O)C(F)(F)F` is higher in “hERG current change (%, negative = inhibition) at 10uM” value: -9.16% for the first, -2.83% for the second.

First: CN(C(=O)CSc1nnc(-c2ccco2)o1)C1CCCCC1
Second: O=C(c1ccco1)N1CCN(Cc2cn[nH]c2-c2ccc(F)cc2F)CC1
The “hERG current change (%, negative = inhibition) at 10uM” value of the first is higher: -7.54% for the first, -12.8% for the second.

First: CC(C)c1ccc(NC2CCCN(C(=O)CCn3cnnn3)C2)cc1 (stereo not shown)
Second: CCn1c(SCC(=O)OC(C)C)nnc1-c1ccccc1OC
The “hERG current change (%, negative = inhibition) at 10uM” value of the first is lower: 3.86% for the first, 13.9% for the second.

Going from `COc1ccc(CCNC(=O)NC23CC4CC(CC(C4)C2)C3)cc1` to `COc1cc(/C=C(\C#N)C(=O)NCC2CCCO2)ccc1OCC(=O)O` (stereo not shown), the “hERG current change (%, negative = inhibition) at 10uM” value rises from 3.27% to 11%.

First: COc1ccc(-c2cn3cccnc3n2)cc1NC(=O)C(C)C
Second: C[C@@H](O)C1NC(=O)[C@H](CCCCN)NC(=O)c2cc([N+](=O)[O-])cc(I)c2OCC[C@@H](C(N)=O)NC1=O (stereo partly shown)
The “hERG current change (%, negative = inhibition) at 10uM” value of the first is lower: 4.49% for the first, 22.2% for the second.
